The supplement of paper PMC12340641
Whole data set: some 1,000 compounds, median “relative growth recovery (pomalidomide 10 uM = 100%, DMSO = 0%)” near -1.6, cut for the highest 2% near 21. This is one part of the list.

Each compound was assayed on HEK293FT dCK*-IKZF1 (assay: relative growth recovery (pomalidomide 10 uM = 100%, DMSO = 0%); higher = more growth rescue (IKZF1 fusion degradation)). Details: compound concentration: 5 uM; AraC concentration: 0.3 uM; overnight pretreatment + 4 days AraC.
Experimental: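 Growth recovery screen of the molecular-glue-like (Specs) library. HEK293FT cells expressing a dCK*-IKZF1 fusion (primary) or dCK* alone (counter) were pretreated overnight with compound at 5 uM, then given 0.3 uM AraC for 4 days. Hoechst nuclei were counted by imaging. Primary: normalised to pomalidomide (100%) and DMSO (0%), mean of 2 replicates. Counter: normalised to no-AraC (100%) and AraC+DMSO (0%), single replicate.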

| SMILES | relative growth recovery [%] |
| --- | --- |
| Cc1cc(C)nc(NS(=O)(=O)c2ccc(NS(C)(=O)=O)cc2)n1 | -2.53 |
| CC(=O)N1CCC(CCc2ccnc(Nc3nccs3)c2)CC1 | 5.28 |
| Cc1cc(C)nc(NS(=O)(=O)c2ccc(NC(=O)CSc3nc4c(cc3C#N)CCCC4)cc2)n1 | -2.04 |
| Cc1ccc(Oc2ccc3c(c2)C(=O)N(c2ccc(C(N)=O)cc2)C3=O)cc1C | 0.78 |
| Cc1cnc(Nc2cccc(C3CCN(C(=O)c4cccnc4)CC3)n2)s1 | -18.6 |
| Cc1cc(C)nc(NS(=O)(=O)c2ccc(NC(=O)NC3CCCCC3)cc2)n1 | -3.2 |
| O=C(/C=C/c1ccco1)N1CCCC1c1csc(Nc2ccccn2)n1 (stereo not drawn) | -0.045 |
| CC(=O)N1CCCC1c1cccc(Nc2nc(C)cs2)n1 (stereo not drawn) | -0.2 |
| CC(=O)N1CCC(c2cccc(Nc3nc(C)cs3)n2)CC1 | 1.95 |
| Cc1cnc(Nc2cccc(C3CN(C(=O)Cn4nnc5ccccc54)CCO3)n2)s1 (stereo not drawn) | -7.92 |
| Cc1csc(Nc2cccc(C3CCN(C(=O)CN)CC3)n2)n1 | -10.2 |
| Cn1c(SCC(=O)Nc2ccccn2)nc2ccccc21 | 6.13 |
| COc1cc(NS(=O)(=O)c2ccc(NC(=O)c3ccc(Br)cc3)cc2)nc(OC)n1 | -0.41 |
| Cc1cnc(Nc2cccc(CC3CCN(CC(=O)N(C(C)C)C4CCCCC4)CC3)n2)s1 | -6.62 |
| CCOc1cccc(C(=O)Nc2ccc(S(=O)(=O)Nc3nc(C)cc(C)n3)cc2)c1 | 2.04 |
| Cc1cc(C)nc(NS(=O)(=O)c2ccc(NC(=O)/C=C/c3cccs3)cc2)n1 | 2.12 |
| Cc1csc(Nc2cccc(C3CN(CC(=O)NCc4ccccn4)CCO3)n2)n1 (stereo not drawn) | 8.57 |
| CCOc1ccc(C(=O)Nc2ccc(S(=O)(=O)Nc3ncccn3)cc2)cc1OCC | -3.79 |
| Cc1ccc(C)c(OCCCC(=O)Nc2ccc(S(=O)(=O)Nc3ncccn3)cc2)c1 | -1.65 |
| O=C(CSc1nc2cc(Cl)ccc2[nH]1)Nc1ccc(Br)cn1 | -5.94 |
| Cc1ccccc1OCC(=O)Nc1ccc(S(=O)(=O)Nc2ccccn2)cc1 | -1.69 |
| NC(=O)CN1CCC(c2csc(Nc3ccc(F)cn3)n2)CC1 | 8.4 |
| CC1=NN(CCC(=O)N2CCOC(c3cccc(Nc4nc(C)c(C)s4)n3)C2)CC1 (stereo not drawn) | 10.3 |
| CC(=O)Nc1ccc(S(=O)(=O)Nc2ccc(S(=O)(=O)Nc3ncccn3)cc2)cc1 | 3.15 |
| O=C(CCc1c[nH]c2ccccc12)N1CCCC1c1cccc(Nc2nccs2)n1 (stereo not drawn) | 2.69 |

| SMILES | relative growth recovery [%] |
| --- | --- |
| O=C(CO)N1CCC(c2cccc(Nc3ncc(-c4ccccc4)s3)n2)CC1 | -18.5 |
| Cc1ccnc(NS(=O)(=O)c2ccc(NC(=O)C(C)(C)C)cc2)n1 | -3.48 |
| Cc1cc(C)nc(NS(=O)(=O)c2ccc(NC(=O)C(C)Oc3ccccc3)cc2)n1 (stereo not drawn) | 0.095 |
| O=C(O)CN1CCN(c2cccc3c2C(=O)N(C2CCC(=O)NC2=O)C3=O)CC1 (stereo not drawn) | 0.995 |
| Cc1cc(C)nc(NS(=O)(=O)c2ccc(NC(=O)CCC(=O)O)cc2)n1 | -6.62 |
| Cc1csc(Nc2cccc(C3CN(C(=O)CCC4CCCC4)CCO3)n2)n1 (stereo not drawn) | 21 |
| Cc1cccc(OCC(=O)Nc2ccc(S(=O)(=O)Nc3nc(C)cc(C)n3)cc2)c1 | -6.49 |
| Cc1cc(NS(=O)(=O)c2ccc(NC(=O)CCc3ccccc3)cc2)nc(C)n1 | -5.83 |
| O=C(c1cccc2ncccc12)N1CCOC(c2cccc(Nc3nccs3)n2)C1 (stereo not drawn) | -7.12 |
| COc1cc(NS(=O)(=O)c2ccc(N)cc2)nc(OC)n1 | -2.23 |
| CCN(CC)c1ccc2cc(C(=O)Nc3ccc(S(=O)(=O)Nc4nc(C)cc(C)n4)cc3)c(=O)oc2c1 | 11.4 |
| O=C(COc1ccccc1)Nc1ccc(S(=O)(=O)Nc2ccccn2)cc1 | -0.54 |
| O=C(Nc1ccc(S(=O)(=O)Nc2ccccn2)cc1)c1ccco1 | -4.95 |
| Cc1csc(Nc2cccc(C3CCCN3C(=O)c3n[nH]c4c3CCCCCC4)n2)n1 (stereo not drawn) | -1.55 |
| O=C(C1CCCCN1)N1CCC(c2cccc(Nc3ncc(-c4ccccc4)s3)n2)CC1 (stereo not drawn) | -3.42 |
| Cc1nc(Nc2cccc(C3CCCN3C(=O)CCCc3ccc(F)cc3)n2)sc1C (stereo not drawn) | 2.51 |
| O=C(Cc1ccc(F)cc1)N1CCC(c2cccc(Nc3nccs3)n2)CC1 | -18.6 |
| CC(C)C(=O)Nc1ccc(S(=O)(=O)Nc2ccccn2)cc1 | -1.96 |
| CC(=O)Nc1ccc(S(=O)(=O)Nc2nccc(C)n2)cc1 | -0.055 |
| CCN1CC(C(=O)N2CCC(c3cccc(Nc4ncc(C)s4)n3)CC2)CC1=O (stereo not drawn) | -0.005 |
| Cc1ccnc(NS(=O)(=O)c2ccc(NC(=O)Cc3cccs3)cc2)n1 | 3.77 |
| O=C(CCc1ccccc1)Nc1ccc(S(=O)(=O)Nc2ccccn2)cc1 | -4.47 |
| COc1cc(NS(=O)(=O)c2ccc(NC(=S)NC(=O)/C=C/c3ccco3)cc2)nc(OC)n1 | -0.65 |
| Cc1cnc(Nc2cccc(C3CCN(C(=O)CCn4ncc5ccccc54)CC3)n2)s1 | -1.66 |
| CC(C)(C)CC(=O)Nc1ccc(S(=O)(=O)Nc2ncccn2)cc1 | -2.79 |

| SMILES | relative growth recovery [%] |
| --- | --- |
| O=C(CN1CCC(c2cccc(Nc3nccs3)n2)CC1)Nc1ccc(F)cc1 | 9.19 |
| CC(C)c1cccc(OCC(=O)Nc2ccc(S(=O)(=O)Nc3ccccn3)cc2)c1 | -4.19 |
| O=[N+]([O-])c1ccc(S(=O)(=O)Nc2ccc(S(=O)(=O)Nc3ncccn3)cc2)cc1 | -2.34 |
| O=C(/C=C/c1ccc(Cl)cc1)Nc1ccc(S(=O)(=O)Nc2ncccn2)cc1 | -16.4 |
| Cc1cnc(Nc2cccc(C3CCN(C(=O)[C@H]4CCCC[C@H]4NC(=O)OC(C)(C)C)CC3)n2)s1 | 5.29 |
| Cc1cnc(Nc2cccc(C3CCN(C(=O)CC4CCCCC4)CC3)n2)s1 | -13.5 |
| O=C(CS(=O)(=O)c1ccccc1)Nc1ccc(S(=O)(=O)Nc2ncccn2)cc1 | -4.8 |
| COc1cc(NS(=O)(=O)c2ccc(Nc3nc(-c4ccccc4)cs3)cc2)nc(OC)n1 | -16.4 |
| Cc1nc(Nc2cccc(C3CCCN3C(=O)CN3CCc4ccccc4C3)n2)sc1C (stereo not drawn) | 3.27 |
| O=C(Nc1ccc(S(=O)(=O)Nc2ncccn2)cc1)Oc1ccccc1 | 3.04 |
| Cc1cc(C)nc(NS(=O)(=O)c2ccc(NC(=O)c3oc4ccccc4c3C)cc2)n1 | -2.64 |
| COc1cccc(C(=O)N2CCOC(c3cccc(Nc4nc(C)c(C)s4)n3)C2)c1 (stereo not drawn) | 10.9 |
| Cc1cnc(Nc2cccc(CC3CCN(C(=O)C4CCCCC4)CC3)n2)s1 | 4.21 |
| Cc1cnc(Nc2cccc(C3CN(C(=O)CCc4ccccc4)CCO3)n2)s1 (stereo not drawn) | 3.24 |
| COc1ccc(/C=C/C(=O)Nc2ccc(S(=O)(=O)Nc3cc(C)nc(C)n3)cc2)cc1 | -2.46 |
| Cc1nc(Nc2cccc(C3CCCN3C(=O)CCCN3C(=O)CNC3=O)n2)sc1C (stereo not drawn) | 3.93 |
| O=C(O)CCOCCNc1cccc2c1C(=O)N(C1CCC(=O)NC1=O)C2=O (stereo not drawn) | -5.19 |
| COc1ccc(OCCCC(=O)Nc2ccc(S(=O)(=O)Nc3cc(C)nc(C)n3)cc2)cc1 | 1.14 |
| Cc1csc(Nc2cccc(C3CCN(CC(=O)N4CCC(C(N)=O)CC4)CC3)n2)n1 | 5.36 |
| COc1ccc(/C=C/C(=O)NC(=S)Nc2ccc(S(=O)(=O)Nc3nccnc3OC)cc2)cc1OC | -18 |
| CC(=O)N1CCCC1CCc1ccc(Nc2ncc(-c3ccc(F)cc3)s2)nc1 (stereo not drawn) | -7.83 |
| O=[N+]([O-])c1ccc(S(=O)(=O)Nc2ncccn2)cc1 | -1.17 |
| Cc1cnc(Nc2cccc(C3CN(C(=O)CN(C(=O)CC(C)C)c4ccccc4)CCO3)n2)s1 (stereo not drawn) | 1.34 |
| CCCC(=O)Nc1ccc(S(=O)(=O)Nc2cc(C)nc(C)n2)cc1 | -1.16 |
| CCC(C(=O)Nc1ccc(S(=O)(=O)Nc2ncccn2)cc1)c1ccccc1 (stereo not drawn) | -4.23 |

| SMILES | relative growth recovery [%] |
| --- | --- |
| O=C(CN1CCC(c2cccc(Nc3nccs3)n2)CC1)N1CCCc2ccccc21 | -1.5 |
| Cc1cnc(Nc2cccc(C3CCCN3C(=O)CCOc3ccccc3C)n2)s1 (stereo not drawn) | -5.03 |
| CC(=O)Nc1ccc(-c2csc(Nc3ccccn3)n2)cc1 | 2.7 |
| Cc1cc(C)c2[nH]c3nc(SCC(=O)Nc4ccc(F)cc4)nnc3c2c1 | -9.18 |
| Cn1nccc1/C=C/C(=O)N1CCCC1c1csc(Nc2ccccn2)n1 (stereo not drawn) | 2.75 |
| Cc1cnc(Nc2cccc(C3CCN(C(=O)C45CC6CC(CC(O)(C6)C4)C5)CC3)n2)s1 | -15.2 |
| COCC(=O)N1CCCC1c1cccc(Nc2nccs2)n1 (stereo not drawn) | -3.5 |
| Cc1cc(C)c2[nH]c3nc(SCC(=O)Nc4cccc(Cl)c4)nnc3c2c1 | -10 |
| Cc1cc(C)nc(NS(=O)(=O)c2ccc(NC(=O)Cn3cnc4ccccc4c3=O)cc2)n1 | 0.065 |
| CCCOc1ccccc1C(=O)Nc1ccc(S(=O)(=O)Nc2nc(C)cc(C)n2)cc1 | -1.94 |
| CCS(=O)(=O)Nc1ccc(S(=O)(=O)Nc2nc(C)cc(C)n2)cc1 | -4.85 |
| CC(C)(C)C(=O)N1CCOC(c2cccc(Nc3ncc(-c4cccnc4)s3)n2)C1 (stereo not drawn) | 13.5 |
| Cc1cnc(Nc2cccc(C3CCN(CC(=O)NCc4ccccn4)CC3)n2)s1 | -0.73 |
| CCCc1cnc(Nc2cccc(C3(C(N)=O)CCN(C(=O)C4CCCCC4)CC3)n2)s1 | -11.7 |
| CNC(=O)C(c1cccc(Nc2ncc(C)s2)n1)C1CCN(C(=O)[C@H](CC(C)C)NC(=O)OC(C)(C)C)CC1 (stereo partly drawn) | -1.13 |
| NC1(C(=O)N2CCC(c3cccc(Nc4ncc(Cl)s4)n3)CC2)CC1 | -20.3 |
| Cc1cc(NS(=O)(=O)c2ccc(NC(=O)c3ccccc3Cl)cc2)nc(C)n1 | 1.01 |
| CC(C)N(C(=O)CN1CCOC(c2cccc(Nc3nccs3)n2)C1)C1CCCCC1 (stereo not drawn) | -2.24 |
| Cc1cnc(Nc2cccc(C3CN(C(=O)C4CC=CCC4)CCO3)n2)s1 (stereo not drawn) | -8.73 |
| COC(=O)C(c1cccc(Nc2ncc(C)s2)n1)C1CCN(C(=O)C2CCCCC2)CC1 (stereo not drawn) | 5.28 |
| Cc1ccnc(NS(=O)(=O)c2ccc(NC(=O)CCCOc3ccccc3)cc2)n1 | 0.035 |
| COc1cccc(OC)c1C(=O)Nc1ccc(S(=O)(=O)Nc2cc(C)nc(C)n2)cc1 | 11.3 |
| Cc1cnc(Nc2cccc(C3CN(C(=O)COc4ccccc4)CCO3)n2)s1 (stereo not drawn) | -5.58 |
